Data: article PMC7819943, “Rice protein-binding microarrays: a tool to detect cis-acting elements near promoter regions in rice”
Some of the results follow.

biological target: T1, OsWOX13 (Oryza sativa, UniProt Q5QMM3 1-267); assay: protein-binding microarray (RPBM); PBS, 2% BSA, 51.3 ng/ul salmon testes DNA, 50 uM zinc acetate, 200 nM TF, 25 C, 1 h; high values mean tight binding; details: protein: recombinant; tags: N-terminal polyhistidine and DsRed monomer fusion (pET32a); label: CyDye5-dUTP incorporated in the synthesized complementary strand; 3' TTTTT single-stranded linker to array surface; dsDNA, one strand shown
T1 sequence: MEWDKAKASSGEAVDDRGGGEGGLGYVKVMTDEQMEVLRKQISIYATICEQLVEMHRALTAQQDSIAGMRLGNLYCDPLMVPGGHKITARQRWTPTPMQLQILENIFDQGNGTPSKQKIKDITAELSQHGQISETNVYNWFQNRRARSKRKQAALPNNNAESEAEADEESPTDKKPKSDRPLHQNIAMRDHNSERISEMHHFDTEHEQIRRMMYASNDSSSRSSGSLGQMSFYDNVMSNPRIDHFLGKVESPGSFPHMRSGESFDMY
Method in brief: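 Transcription factors were each fused at the N-terminus to a polyhistidine tag plus DsRed and expressed in E. coli BL21-CodonPlus before Ni–NTA purification. Binding to a double-stranded custom Agilent array was carried out with 200 nM protein at 25 °C for 1 h in PBS, 2% BSA, salmon testes DNA and 50 µM zinc acetate. The binding signal is per-feature fluorescence intensity, in arbitrary units, on an Axon 4000B scanner.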

| Sequence | binding signal |
| --- | --- |
| AGCTTTGATTTAGAAACGTAGGTGCGGGATGTTGTTATTCCGGAGTCACCTAGTGCAG | 6330 fluorescence intensity (a.u.) |
| AATGATTTTAAACCTGCAAATTGGGCGCAAATTGCTGATCCGGAGTCACCTAGTGCAG | 21200 fluorescence intensity (a.u.) |
| AACTTAGACTGCGGTAAAGATCATTGGAGAGAGACTAGAGCGGAGTCACCTAGTGCAG | 4610 fluorescence intensity (a.u.) |
| ATCTAATTGGGCCTCATTAACATGGGCTTACAGTGGGCCACGGAGTCACCTAGTGCAG | 21100 fluorescence intensity (a.u.) |
| ATTACATAAATTGTGTGTAGATTGCCATGATTTGACAATGCGGAGTCACCTAGTGCAG | 19900 fluorescence intensity (a.u.) |
| TGTAATTATATTTATATTAGTACCTCATCAGTGTCTTGAACGGAGTCACCTAGTGCAG | 23900 fluorescence intensity (a.u.) |
| ACAAATTGAAGAAAGCATTTCCAGAACTGGTGCAAGAAGTCGGAGTCACCTAGTGCAG | 17200 fluorescence intensity (a.u.) |
| GACACCATACTGATTAGTCTTTTCATGCATTGCAGTATTTCGGAGTCACCTAGTGCAG | 5520 fluorescence intensity (a.u.) |
| ACATGGTGATTTAACATAATTTAGCCATGATTTTGAAGGCCGGAGTCACCTAGTGCAG | 40200 fluorescence intensity (a.u.) |
| AGCATCATTGTAATTACACGGTAACTTTCATATAATTTAACGGAGTCACCTAGTGCAG | 18400 fluorescence intensity (a.u.) |
| GGTATTAATTGTCGAGCCATGCATCCACGTGCACAGGGTACGGAGTCACCTAGTGCAG | 9210 fluorescence intensity (a.u.) |
| ACTGAATGACAAGTTGAGGGATCTTCGGTGTACTATTGGGCGGAGTCACCTAGTGCAG | 11400 fluorescence intensity (a.u.) |
| ATTAATTTGTGTGAAACTGACATACGAGTCTTACGGGGTTCGGAGTCACCTAGTGCAG | 36200 fluorescence intensity (a.u.) |
| CAAATTTTGAGGGAGATTGAAGGCGACCTGTCCGGGTTCACGGAGTCACCTAGTGCAG | 9740 fluorescence intensity (a.u.) |
| TGCTACATGATTATGTGAAATTAAAGATCTGAAGGAATGTCGGAGTCACCTAGTGCAG | 20500 fluorescence intensity (a.u.) |
| ACATGAACACAGATATATTAATTGCTTGTAGTACGCCTGCCGGAGTCACCTAGTGCAG | 3430 fluorescence intensity (a.u.) |
| GATTGAAATTGAAGATGATGTGACTGAAAAGTTGGGTATGCGGAGTCACCTAGTGCAG | 27500 fluorescence intensity (a.u.) |
| TTATAATTAGAACTTTTATATGTGTGTTATGCACGACTTACGGAGTCACCTAGTGCAG | 4050 fluorescence intensity (a.u.) |
| ATTGACTTGACGACCGCCATGAATTCATCTCATCTCATCTCGGAGTCACCTAGTGCAG | 5970 fluorescence intensity (a.u.) |
| CTGATGATTCACCCATGATCGATTGCTCGATCCGTTTAAGCGGAGTCACCTAGTGCAG | 3710 fluorescence intensity (a.u.) |
| TCTTAATTTCTATCAATAATTTAATTTAGCATATAATAACCGGAGTCACCTAGTGCAG | 31300 fluorescence intensity (a.u.) |

| Sequence | binding signal |
| --- | --- |
| CCTGAATGATCATCAGCATCACTGTCTTCTCTTCAGGGATCGGAGTCACCTAGTGCAG | 19300 fluorescence intensity (a.u.) |
| TTTTGATAGGACCACTATATATAAAGTGGTTCTTTACACGCGGAGTCACCTAGTGCAG | 5620 fluorescence intensity (a.u.) |
| TGGTCCAATCACGAGTTCATTATCTGTAATTGGGACGAAGCGGAGTCACCTAGTGCAG | 21200 fluorescence intensity (a.u.) |
| CTAATTGTAACAGGATTGGGCAATGGTCCGATCTGAGGGTCGGAGTCACCTAGTGCAG | 18400 fluorescence intensity (a.u.) |
| TGCGAATTGTTTGATTAGTGCGCCGTGTCCGGAACCGTTTCGGAGTCACCTAGTGCAG | 17600 fluorescence intensity (a.u.) |
| GTTCTTCTATTTCTCTTTTATCTTTTCATAGTTTCGATTTCGGAGTCACCTAGTGCAG | 3500 fluorescence intensity (a.u.) |
| GATTGATGGATGGATACAGCTTTACCATTTCTTACATCCCCGGAGTCACCTAGTGCAG | 31500 fluorescence intensity (a.u.) |
| CTCTTAATTAAATGCATCCATGCATGCGCATCATAATATGCGGAGTCACCTAGTGCAG | 35100 fluorescence intensity (a.u.) |
| CATATGGATTAATTAGTACTCGATTCTGACAGTAATGGAACGGAGTCACCTAGTGCAG | 11800 fluorescence intensity (a.u.) |
| ATGATTGTTCTTGTTATTGTGCATATGAATCATGATTAATCGGAGTCACCTAGTGCAG | 26000 fluorescence intensity (a.u.) |
| AGTAATTCTTAAATTTCCTTTAGTGATAAAACAGGTCACACGGAGTCACCTAGTGCAG | 3690 fluorescence intensity (a.u.) |
| CTGTACTAACCACTTTTGATTAGGAGTAGGAGTACTGATTCGGAGTCACCTAGTGCAG | 3420 fluorescence intensity (a.u.) |
| GGTTAATTTCTTTCAATGGAATTGGGTCGCCTAGAACTGACGGAGTCACCTAGTGCAG | 20800 fluorescence intensity (a.u.) |
| AGCTGATGATTTACGGTGTAAGCTGGGTTCTCCTAAAAGCCGGAGTCACCTAGTGCAG | 26200 fluorescence intensity (a.u.) |
| CGCCATGATTTGACAATGTAGTGCTACAGTAAACATTTGACGGAGTCACCTAGTGCAG | 12000 fluorescence intensity (a.u.) |
| ATTAACTGGCCGAGCTTCAGTTAATTCATTTGTGGCTCCACGGAGTCACCTAGTGCAG | 6580 fluorescence intensity (a.u.) |
| ATTAACAATTATGCAACGGTTGACACTAGCTAGCGTACACCGGAGTCACCTAGTGCAG | 4680 fluorescence intensity (a.u.) |
| TAATTTGTGCTAATTAGTAATTTTCATTTGTTTTGCATAGCGGAGTCACCTAGTGCAG | 23800 fluorescence intensity (a.u.) |
| ACAGACAGACAGCTCCAACCAACACTTGCACGCTCAATCGCGGAGTCACCTAGTGCAG | 4830 fluorescence intensity (a.u.) |
| TGGGATTGAGACCTTGCGTGAGGCTCATTGTTGTTGGGCCCGGAGTCACCTAGTGCAG | 11600 fluorescence intensity (a.u.) |
| TAGAATAGATTAATAGTAAACCACCTCAATAGTATGTCTACGGAGTCACCTAGTGCAG | 6770 fluorescence intensity (a.u.) |
